One assay addresses T1, ETFA-YFP2 (human) (UniProt P13804).
T1 sequence: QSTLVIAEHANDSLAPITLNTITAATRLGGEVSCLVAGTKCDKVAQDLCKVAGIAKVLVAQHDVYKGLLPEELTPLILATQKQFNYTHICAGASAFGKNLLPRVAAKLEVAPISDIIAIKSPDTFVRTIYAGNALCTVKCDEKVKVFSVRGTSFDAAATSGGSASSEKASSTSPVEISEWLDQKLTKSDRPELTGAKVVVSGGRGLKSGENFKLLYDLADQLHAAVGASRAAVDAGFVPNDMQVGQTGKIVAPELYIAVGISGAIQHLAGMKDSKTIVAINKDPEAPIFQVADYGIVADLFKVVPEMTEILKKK
The assay can be described thus: split reporter; YFP-based protein fragment complementation assay: YFP1 (1-158) and YFP2 (159-239) C-terminal fusions co-expressed in BHK cells, fixed 24 h after transfection, confocal fluorescence microscopy.

For assay [1], the target named is T2, GCDH fused C-terminally to YFP1 or YFP2 (protein complementation assay) (human) (UniProt Q92947).
T2 sequence: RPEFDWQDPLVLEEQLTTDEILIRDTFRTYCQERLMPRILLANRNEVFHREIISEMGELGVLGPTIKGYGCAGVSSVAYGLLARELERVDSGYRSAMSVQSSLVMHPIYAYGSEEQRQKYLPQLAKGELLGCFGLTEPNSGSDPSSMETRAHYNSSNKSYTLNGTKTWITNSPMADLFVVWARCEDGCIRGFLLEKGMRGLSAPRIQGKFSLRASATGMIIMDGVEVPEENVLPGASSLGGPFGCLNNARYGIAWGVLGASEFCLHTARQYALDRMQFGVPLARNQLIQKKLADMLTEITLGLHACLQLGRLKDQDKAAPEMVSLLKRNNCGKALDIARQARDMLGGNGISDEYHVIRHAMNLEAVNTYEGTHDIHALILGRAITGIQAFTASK
The assay is described as above.

The target in assay [2] is T3, GCDH His6-fusion protein (human glutaryl-CoA dehydrogenase, mature enzyme) (human) (UniProt Q92947).
T3 sequence: T2 sequence
The assay can be described thus: pull-down; GCDH coupled covalently to Affi-Gel 10, incubated with pig liver mitochondrial matrix proteins; high salt elution fraction tested by anti-DLST and anti-ETFB western blotting; non-coupled beads as control; only the target purified.

Assay [3] deals with T4, ETFB-His6 (human electron transfer flavoprotein subunit beta), from E. coli (human) (UniProt P38117).
T4 sequence: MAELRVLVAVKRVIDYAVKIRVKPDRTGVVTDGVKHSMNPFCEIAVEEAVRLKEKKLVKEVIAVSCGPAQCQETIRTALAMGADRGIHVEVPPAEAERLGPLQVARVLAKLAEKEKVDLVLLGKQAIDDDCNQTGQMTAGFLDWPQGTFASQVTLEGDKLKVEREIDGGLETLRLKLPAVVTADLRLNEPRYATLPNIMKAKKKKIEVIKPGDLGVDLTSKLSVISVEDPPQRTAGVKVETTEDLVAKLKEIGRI
The assay can be described thus: pull-down; ETFB-His6 or ETFA-His6 from E. coli immobilised on Ni-NTA agarose, incubated 2 h with 0.3 mg BHK cell extract overexpressing GCDH-Myc or LC3-GFP; buffer 50 mM NaH2PO4 pH 7.8, 300 mM NaCl, 10 mM imidazole; western blotting; only the target purified.

Assay [4] has as its target T5, ETFA-His6 (human electron transfer flavoprotein subunit alpha), from E. coli (human) (UniProt P13804).
T5 sequence: T1 sequence
Described as above.

The target in assay [5] is T6, ETFB fused C-terminally to YFP1 or YFP2 (protein complementation assay) (human) (UniProt P38117).
T6 sequence: T4 sequence
Put plainly: split reporter; YFP-based protein fragment complementation assay: YFP1 (1-158) and YFP2 (159-239) C-terminal fusions co-expressed in BHK cells, fixed 24 h after transfection, confocal fluorescence microscopy.

Assay [6] addresses T7, 3-hydroxy-3-methylglutaryl-CoA lyase fused to YFP2 (UniProt P35914).
T7 sequence: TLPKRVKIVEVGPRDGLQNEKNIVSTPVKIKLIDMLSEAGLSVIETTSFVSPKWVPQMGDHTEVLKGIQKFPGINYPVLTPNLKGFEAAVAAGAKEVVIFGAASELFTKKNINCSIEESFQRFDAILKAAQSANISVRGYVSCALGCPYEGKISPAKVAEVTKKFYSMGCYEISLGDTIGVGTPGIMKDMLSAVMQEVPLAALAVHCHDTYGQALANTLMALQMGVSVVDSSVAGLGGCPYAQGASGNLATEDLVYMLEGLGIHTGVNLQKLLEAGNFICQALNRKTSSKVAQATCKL
The description is as above.

Assay [7] addresses T8, multiple coagulation factor deficiency protein 2 fused to YFP2 (UniProt Q8NI22).
T8 sequence: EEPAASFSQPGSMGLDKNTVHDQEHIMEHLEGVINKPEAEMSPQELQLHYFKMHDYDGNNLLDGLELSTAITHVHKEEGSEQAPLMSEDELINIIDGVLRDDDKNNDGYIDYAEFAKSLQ
Described as above.

These are yes or no findings as the source states them, for the method shown. Binding seen in cells or lysates may run through a third protein. Some results given as binding are weak or reduced against the parent protein; the word gives no strength. Tags and fused reporters may be left off the sequences shown.

The values that follow come from paper PMC3912011.

B1: ETFB fused C-terminally to YFP1 or YFP2 (protein complementation assay) (protein, UniProt P38117-1 1-255)
chain: T4 sequence
Consider B1, for which the binding result (with ETFA-YFP2 (human); in assay [1]) was “binds” throughout.

B2: electron transfer flavoprotein subunit beta (pig liver mitochondrial matrix) (protein, UniProt Q6UAQ8 1-255)
chain: MAELRALVAVKRVIDFAVKIRVKPDRTGVVMDGVKHSMNPFCEIAVEEAVRLKEKKLVKEVIAVSCGPAQCQETIRTALAMGADRGIHVEVPAAEAHHLGPLQVARVLAKLAQKEKVDLVLLGKQAIDDDCNQTGQMTAGFLDWPQGTFASQVTLEGDKVKVEREIDGGLETLRLKLPAVVTADLRLNEPRYATLPNIMKAKKKKIEVIKAGDLGVDLTSKLSVVSVEDPPQRVAGVKVETTEDLVAKLREIGRI
With B2, in assay [2], the binding entry is on record as “binds”.

B3: dihydrolipoamide S-succinyltransferase (pig liver mitochondrial matrix) (enzyme, UniProt Q9N0F1 69-455)
chain: DDVITVKTPAFAESVTEGDVRWEKAVGDTVAEDEVVCEIETDKTSVQVPSPANGVIEALLVPDGGKVEGGTPLFTLRKTGAAPAKAKPAEAPAAAAPKAEPAVSAVPPPPAASIPTQMPPVPSPPQPLTSKPVSAVKPTAAPPVAEPGAVKGLRAEHREKMNRMRQRIAQRLKEAQNTCAMLTTFNEIDMSNIQDMRARHKEAFLKKHNLKLGFMSAFVKASAFALQEQPVVNAVIDDTTKEVVYRDYIDISVAVATPRGLVVPVIRNVETMNYADIERTISELGEKARKNELAIEDMDGGTFTISNGGVFGSLFGTPIINPPQSAILGMHAIVDRPVAVGGKVEIRPMMYVALTYDHRLIDGREAVTFLRKIKAAVEDPRVLLLDL
For B3, the binding entry in assay [2] was “binds”.

B4: GCDH-Myc (human), expressed in BHK cells (enzyme, UniProt Q92947 45-438)
chain: T2 sequence
In the case of B4, the results for the binding result in assay [3] and in assay [4] were “binds” and “binds weakly”, respectively.

B5: GCDH fused C-terminally to YFP1 or YFP2 (protein complementation assay) (enzyme, UniProt Q92947 45-438)
chain: T2 sequence
With B5, the binding entry with ETFA-YFP2 (human) was “binds weakly”; in assay [5], “binds”; in assay [1], “binds”; in assay [6], “no binding”; in assay [7], “no binding”.
